83 variants from the RNAGym collection of RNA variant scans (doi:10.1073/pnas.2313332121) can be followed below.

Variants at the background level are over-represented here.

The chains are these.
B1: TPR 5TU (parent)
chain: GGAUCUUCUCGAUCUAACAAAAAAGACAAAUCUGCCACAAAGCUUGAGAGCAUCUUCGGAUGCAGAGGCGGCAGCCUUCGGUGGCGCGAUAGCGCCAACGUUCUCAACUAUGACACGCAAAACGCGUGCUCCGUUGAAUGGAGUUUAUCAUG

In the data set the parent is B1. The data set is described as follows: polymerase ribozyme fitness, log enrichment relative to wild type (log ratio); higher = more active; in vitro selection for triplet polymerase activity. In a few lines: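 The heterodimeric triplet polymerase ribozyme's subunits were each mutagenized into PCR-built libraries and transcribed. Every library was selected once, in triplicate, by annealing with a biotinylated primer, the partner subunit and triplets, incubating frozen at −7 °C, gel-excising extended constructs, capturing on streptavidin beads and running RT-PCR. Input and output libraries were Illumina-sequenced, with genotypes kept only at ≥10 input reads and ≥1 read per output. Fitness, from inverse-variance-weighted replicate averages, is the base-2 logarithm of genotype enrichment over wild-type enrichment.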
For the variant A12C A24G C85U C95U A120G, the “polymerase ribozyme fitness (log ratio)” value was ≤ -4.2.
With A12C A20U U61A G92U C131A the figure was ≤ -4.2; with G11U A22G A37C G58C U78A G94U U134G, ≤ -4.2.
Consider A12C G86A A113C, for which the “polymerase ribozyme fitness (log ratio)” value was ≤ -4.2.
For A12C C14G A29C G46C U53C U55A C93G, the “polymerase ribozyme fitness (log ratio)” value was ≤ -4.2.
As for G11U A39U G62A U77G A120C, the figure is ≤ -4.2; as for A12C A24U G58U C79A C103G, ≤ -4.2; as for G11U A28C C54G C87U C118G, ≤ -4.2.
With G11U A60U U77A the figure was ≤ -4.2; with A12C A23G G25U U31G G86U C95G G128A G140U, ≤ -4.2.
Turning to G11U C54U C72A U90G G92U U111G U148G, the “polymerase ribozyme fitness (log ratio)” value was ≤ -4.2.
As for A12C G59A G84A C118U A121G A122C G126U, the figure is -3.86.
With A12C C57U U90A C103A C125G the figure was ≤ -4.2; with A12C A37C C75G C76A C95G G124U G136U, ≤ -4.2.
With A12C A20U A39U C54U U55A C99U the figure was ≤ -4.2; with G11U C14G G34U G84U G141U, ≤ -4.2.
Consider G11U G48U G68C C93U A97U C99A, for which the “polymerase ribozyme fitness (log ratio)” value was ≤ -4.2.
Take A12C A40G A41U A52C C54U A66G C95U: the “polymerase ribozyme fitness (log ratio)” value is ≤ -4.2.
As for A12C A21C G34A C69U C76U C85A C108U G112A U139A G143C U145G, the “polymerase ribozyme fitness (log ratio)” value was ≤ -4.2.
As for G11U U53A G65A A73U G83C U144A, the figure is ≤ -4.2; as for A12C A49C G50A G62C C93U U134G G143C, ≤ -4.2.
Take G11U C79G G83U C96U A115U C129A U144G: the “polymerase ribozyme fitness (log ratio)” value was ≤ -4.2.
Consider A12C A23C C54A G81U G92C C99A, for which the “polymerase ribozyme fitness (log ratio)” value is ≤ -4.2.
Take A12C A28C A39U C57A G81A C85A: the “polymerase ribozyme fitness (log ratio)” value is ≤ -4.2.
As for A12C A37U C87G C125G, the figure is ≤ -4.2.
On to G11U U55G A60G G67A C93U, for which the “polymerase ribozyme fitness (log ratio)” value was ≤ -4.2.
With G11U C36U U44G A52U G70C A89G C95U C105U the figure was ≤ -4.2; with A12C G68A G92U A113U A138G U144C, ≤ -4.2; with A12C A21G C35G A39C G59U C87U, ≤ -4.2.
With A12C A47U U55A the figure was -1.41; with G11U A60G C87A G140C G141C A142C, ≤ -4.2.
On to A12C G92C, for which the “polymerase ribozyme fitness (log ratio)” value is -0.73.
As for A12C A30G C38A C51A U56G C85G C95U A106G U111A, the “polymerase ribozyme fitness (log ratio)” value is ≤ -4.2.
On to A12C A66G C85G C95U C108G, for which the “polymerase ribozyme fitness (log ratio)” value was ≤ -4.2.
Turning to A12C A16C U53G A97U, the “polymerase ribozyme fitness (log ratio)” value is ≤ -4.2.
As for A12C A23U U53G C54A U90G U146C, the figure is ≤ -4.2.
As for A12C C32G G84U, the figure is ≤ -4.2.
In the case of A12C A52G A64U A120U A150U, the “polymerase ribozyme fitness (log ratio)” value was ≤ -4.2.
As to A12C C54U U77G C118G, the “polymerase ribozyme fitness (log ratio)” value is ≤ -4.2.
As to A12C C18G G81C A91C C95A A113C A115C, the “polymerase ribozyme fitness (log ratio)” value was ≤ -4.2.
As for G11U C38U G58C C96U A98G, the figure is -1.45; as for G11U U13G G62U C69U G81A C87U, ≤ -4.2; as for G11U U31A G70A C85U, ≤ -4.2.
On to G11U G50C A52C C72G C76G G81C G94C, for which the “polymerase ribozyme fitness (log ratio)” value is ≤ -4.2.
As for G11U U90G C95G A122G, the figure is ≤ -4.2; as for G11U A28U A91U G100U U144C, ≤ -4.2.
For the variant G11U A22C U45G A47C A49G C51U C54U G83A C85G, the “polymerase ribozyme fitness (log ratio)” value is ≤ -4.2.
As for G11U G34A G88A G124A, the figure is ≤ -4.2; as for A12C A22G C36U C38U G58U U109G, ≤ -4.2.
For A12C A26C G92C, the “polymerase ribozyme fitness (log ratio)” value is -3.66.
As to G11U A37U C87A, the “polymerase ribozyme fitness (log ratio)” value was -4.14.
With A12C A52C U53A C57A G58U G83U C118U U151G the figure was ≤ -4.2; with G11U C93U A115G, -2.88; with A12C A26G U61A U127A, ≤ -4.2.
As for A12C G58C G94C, the figure is -1.43; as for A12C A16U U145G, -2.26; as for A12C C36U G94A G117A C129A C149A, ≤ -4.2.
As for G11U G42A G50A C54A C95U G124A, the “polymerase ribozyme fitness (log ratio)” value is ≤ -4.2.
A12C A17U A40U C57G C95G C103U G133C G141C: the “polymerase ribozyme fitness (log ratio)” value is ≤ -4.2.
G11U A37G G71A C87G G92C C131A: the “polymerase ribozyme fitness (log ratio)” value is ≤ -4.2.
With G11U C36U C63U G83C G92A C99U the figure was ≤ -4.2; with A12C C38U C51A G83U G92C, ≤ -4.2; with A12C A52G G68U A98U, -4.19.
With A12C A23U G42C A47C G80C C85G C123G G126C A147G the figure was ≤ -4.2; with G11U C51G G65A G68U G84A G124A A138G, ≤ -4.2; with A12C A113G, -2.73.
With A12C A49C A142G the figure was ≤ -4.2; with A12C A30G G50C C95U, ≤ -4.2; with A12C G48A U104G, ≤ -4.2.
As to G11U A28U C43U C87A C99G G126A, the “polymerase ribozyme fitness (log ratio)” value is -4.16.
With A12C C35U A49C A64U C95U C123U the figure was ≤ -4.2.
With A12C G50C G59U C85G C87G C96G C103G A113U C129A U144C the figure was ≤ -4.2; with A12C G46C A47G U55A G84C A113U, ≤ -4.2; with A12C A22U A24G A29C G48C G50C C93U C95U C129G, ≤ -4.2.
With G11U C54G C93G the figure was ≤ -4.2; with G11U A29G U53G G65C A66G, ≤ -4.2; with G11U A52C G58A C116G C125G A137C, ≤ -4.2.
Consider A12C A16C U31C C32G U53A C93G C118G U151C, for which the “polymerase ribozyme fitness (log ratio)” value is ≤ -4.2.
With A12C C87U A115C the figure was -1.97; with G11U A73U G81A G83C G86U G126C G136C, ≤ -4.2.
A12C A39U A89G C123U C125U U146G: the “polymerase ribozyme fitness (log ratio)” value is ≤ -4.2.
With G11U U13A C43U A47G C95A C96G the figure was ≤ -4.2; with G11U G88A, ≤ -4.2.
